Experimental data reported in PMC4336329 (PLoS ONE, 2015).
The campaign covered roughly 310,000 compounds. About 14,000 (4.5%) showed an effect of 50% or more. Effects have a minus sign here. Some of the results follow.

target: human ether-à-go-go-related gene (hERG) potassium channel (human, UniProt Q12809); assay: primary screen, population patch clamp on CHO cells stably expressing hERG
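Further: peak tail current of the secondary pulse compared with the same well before compound.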

Chain of human ether-à-go-go-related gene (hERG) potassium channel (Q12809 whole entry, looked up): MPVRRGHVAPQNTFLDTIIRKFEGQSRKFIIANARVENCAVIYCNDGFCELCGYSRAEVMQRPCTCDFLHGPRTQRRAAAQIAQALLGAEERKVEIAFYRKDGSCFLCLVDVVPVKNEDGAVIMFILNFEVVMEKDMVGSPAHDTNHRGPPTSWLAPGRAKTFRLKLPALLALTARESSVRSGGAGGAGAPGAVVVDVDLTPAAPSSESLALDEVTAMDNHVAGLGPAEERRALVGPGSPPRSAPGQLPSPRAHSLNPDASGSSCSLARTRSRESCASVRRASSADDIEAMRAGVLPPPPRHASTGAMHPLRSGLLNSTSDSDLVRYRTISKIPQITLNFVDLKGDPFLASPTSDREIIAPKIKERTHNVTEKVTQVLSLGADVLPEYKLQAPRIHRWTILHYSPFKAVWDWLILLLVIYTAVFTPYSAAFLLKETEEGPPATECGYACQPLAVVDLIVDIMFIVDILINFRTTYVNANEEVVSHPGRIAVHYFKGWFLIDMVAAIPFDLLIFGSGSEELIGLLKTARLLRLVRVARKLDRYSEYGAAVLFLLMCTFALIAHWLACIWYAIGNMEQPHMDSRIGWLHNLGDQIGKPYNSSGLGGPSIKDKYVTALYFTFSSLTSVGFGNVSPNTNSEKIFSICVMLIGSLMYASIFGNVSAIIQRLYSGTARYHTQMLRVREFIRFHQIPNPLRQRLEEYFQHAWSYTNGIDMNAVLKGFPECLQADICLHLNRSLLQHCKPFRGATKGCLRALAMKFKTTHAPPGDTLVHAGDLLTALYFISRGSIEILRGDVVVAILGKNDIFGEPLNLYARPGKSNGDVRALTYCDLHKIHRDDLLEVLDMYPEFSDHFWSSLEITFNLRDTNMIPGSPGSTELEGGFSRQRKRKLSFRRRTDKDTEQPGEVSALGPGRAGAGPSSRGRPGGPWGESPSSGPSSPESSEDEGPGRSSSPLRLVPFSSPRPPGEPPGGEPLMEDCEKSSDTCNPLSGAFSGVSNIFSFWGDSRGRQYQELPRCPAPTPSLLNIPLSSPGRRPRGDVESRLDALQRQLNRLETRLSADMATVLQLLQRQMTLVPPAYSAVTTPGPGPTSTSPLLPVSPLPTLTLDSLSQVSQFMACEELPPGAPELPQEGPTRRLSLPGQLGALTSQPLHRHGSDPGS

Going from `CCOc1ccc(S(=O)(=O)n2cnc3cc(C)c(C)cc32)cc1` to `CCOc1ccc(C)cc1S(=O)(=O)Nc1ccc(Cl)cn1`, the “hERG current change (%, negative = inhibition) at 10uM” value falls from 6.15% to -3.98%.

First: CCC(=O)n1nc(-c2cccnc2)nc1NCc1ccc(F)cc1
Second: COc1ccc(CNC(=O)COc2ccc(C(=O)c3ccc(F)cc3)cc2)cc1
The “hERG current change (%, negative = inhibition) at 10uM” value of the first is higher: -0.328% for the first, -9.93% for the second.

First: COc1ccc(C)cc1NC(=O)CCCN1C(=O)CCC1=O
Second: COC(=O)c1cc(OC)c(OC)cc1N1C(=O)CCCC1=O
The “hERG current change (%, negative = inhibition) at 10uM” value of the first is lower: -2.93% for the first, 21.7% for the second.

Going from `NCCNC(=O)Cc1ccc(NC(=O)Cc2ccc(Nc3ncnc4c3ncn4[C@@H]3O[C@H](CO)[C@@H](O)[C@H]3O)cc2)cc1` to `Cc1ccc(NC(=O)CSc2ccccc2NC(=O)c2ccccc2Cl)cc1Cl`, the “hERG current change (%, negative = inhibition) at 10uM” value falls from 18% to 1.55%.

First: COc1cccc2c(=S)c(CCC(C)=O)c(C)[nH]c12
Second: COc1ccccc1CN(Cc1nc2ccccc2c(=O)[nH]1)C(=O)Nc1cccc(C)c1
The “hERG current change (%, negative = inhibition) at 10uM” value of the first is higher: -8.7% for the first, -9.59% for the second.

Going from `Cc1cccc(/C=N/NC(=O)Cn2nccc2C)n1` to `Cc1cc(N/N=C/c2ccc(F)cc2)nc(-n2nc(C)cc2C)n1`, the “hERG current change (%, negative = inhibition) at 10uM” value rises from 0.634% to 17.1%.

Going from `Cc1ccc(N2CCN(C(=O)c3cn(CC4CCCCC4)nn3)C(C)C2)cc1` (stereo not shown) to `Cc1ccc(-c2nc(CS(=O)CC(=O)NC3CCCC3)c(C)o2)cc1` (stereo not shown), the “hERG current change (%, negative = inhibition) at 10uM” value rises from -20.9% to -13.3%.

Going from `COc1cccc(-c2ccc3ncnc(NCc4cc(C)cs4)c3c2)c1` to `CCOC(=O)c1cc(-c2ccccc2)n(CC(=O)Nc2cccc(OC)c2)c1C`, the “hERG current change (%, negative = inhibition) at 10uM” value rises from -7.61% to -2.67%.

First: CN(C(=O)c1ccno1)c1nnc(-c2cccnc2)s1
Second: O=C1/C(=C/c2cccnc2)SC(=S)N1CCc1ccccc1
The “hERG current change (%, negative = inhibition) at 10uM” value of the first is lower: 2.98% for the first, 4.28% for the second.

Going from `CN1C(=O)Cc2cc(S(=O)(=O)N3CCOCC3)ccc21` to `COc1ccc(S(=O)(=O)N2CCOCC2)cc1NC(=O)COc1cccnc1[N+](=O)[O-]`, the “hERG current change (%, negative = inhibition) at 10uM” value rises from -3.02% to 17.1%.

Compared with `CCn1nc(C)c(NC(=O)c2ccc(Br)o2)c1C`, `CCn1c(=O)c(CCC(=O)N2CCOCC2)c(C)c2c(C)nn(-c3ccccc3)c21` is lower in “hERG current change (%, negative = inhibition) at 10uM” value: 1.96% for the first, -1.23% for the second.

Compared with `O=S(=O)(Nc1nc2ccccc2nc1Cl)c1ccc(Cl)cc1`, `Clc1nc2ccccc2cc1/C=N/Nc1nc2ccccc2[nH]1` is higher in “hERG current change (%, negative = inhibition) at 10uM” value: -15.9% for the first, 11.6% for the second.

Going from `Cc1cc(C)cc(N2C(=O)NC(=O)/C(=C\C=C\c3ccco3)C2=O)c1` to `CC(=O)C1=C(C)NC(SCC(=O)c2ccc(C)cc2)=C(C#N)C1c1ccco1` (stereo not shown), the “hERG current change (%, negative = inhibition) at 10uM” value rises from -13.8% to -9.08%.

First: CC1(C)CC2CC(C)(CN2C(=O)C23CCC(C)(C(=O)C2)C3(C)C)C1 (stereo not shown)
Second: COc1ccc(S(=O)(=O)N(C)CC(=O)N2CCN(C)CC2)cc1C
The “hERG current change (%, negative = inhibition) at 10uM” value of the first is lower: -4.28% for the first, 9.49% for the second.

Going from `Cc1ccc(C(=O)N2CCC(C(=O)NCc3ccco3)CC2)cc1` to `COc1ccc(CNC(=O)C2CCN(C(=O)c3ccccc3)CC2)cc1`, the “hERG current change (%, negative = inhibition) at 10uM” value rises from -11.3% to -2.46%.

Going from `COC(=O)c1ccccc1-c1ccc(/C=N/NC(=O)c2cc3ccccc3o2)o1` to `COc1ccccc1N=Cc1nc(-c2ccccc2)oc1OC(C)=O`, the “hERG current change (%, negative = inhibition) at 10uM” value rises from -48.4% to 4.46%.

Going from `O=C1C2CCCN2C(c2cccs2)N1c1ccc(F)cc1` (stereo not shown) to `Cc1oc(-c2ccccc2)nc1C(=O)N1CCN(c2ccc(F)cc2)CC1`, the “hERG current change (%, negative = inhibition) at 10uM” value falls from 14.6% to 8.75%.

Compared with `CC1CN(S(=O)(=O)c2cccc(C(=O)Nc3ccc(S(=O)(=O)NC4=NCCCCC4)cc3)c2)CC(C)O1` (stereo not shown), `Cc1cc(C)n(-c2ccc(C(=O)Nc3ccc(N4CCOCC4)cc3)cc2)n1` is higher in “hERG current change (%, negative = inhibition) at 10uM” value: -5.97% for the first, 7.47% for the second.

Going from `O=c1c2c([N+](=O)[O-])cc([N+](=O)[O-])cc2nc2ccccn12` to `CCOC(=O)c1cc2c(=O)n3ccccc3nc2n(Cc2ccco2)c1=NC(=O)c1cccc(OC)c1`, the “hERG current change (%, negative = inhibition) at 10uM” value falls from 6.04% to -43.8%.

First: Cn1cc(Cl)c(C(=O)N(Cc2ccccc2)c2ccccn2)n1
Second: O=C1CC(c2ccccc2)n2nc(NC(=O)c3ccccn3)nc2N1 (stereo not shown)
The “hERG current change (%, negative = inhibition) at 10uM” value of the first is higher: 4.98% for the first, -7.8% for the second.

Going from `Cc1cc(OC(=O)c2ccccc2)n(CCC#N)n1` to `Cc1cccc(OCCCC(=O)NCCc2ccccc2)c1`, the “hERG current change (%, negative = inhibition) at 10uM” value falls from 8.73% to 2.83%.

Compared with `Cn1cnnc1SCC(=O)Nc1ccccc1Oc1ccccc1`, `COc1ccccc1N1CCN(C(=O)CSc2ncnc3scc(-c4ccccc4)c23)CC1` is lower in “hERG current change (%, negative = inhibition) at 10uM” value: 5.73% for the first, 1.5% for the second.

First: CCOc1ccc(Nc2nc(Cl)nc(NCCO)n2)cc1
Second: COc1ccc2nc(SCc3nc(N)nc(Nc4ccccc4)n3)[nH]c2c1
The “hERG current change (%, negative = inhibition) at 10uM” value of the first is higher: 3.29% for the first, -47.1% for the second.

Compared with `CN(CC(=O)O)S(=O)(=O)/C=C/c1ccccc1`, `O=C(CSc1ncn[nH]1)N1CCN(S(=O)(=O)c2ccccc2)CC1` is lower in “hERG current change (%, negative = inhibition) at 10uM” value: 24.5% for the first, 13.3% for the second.

Going from `COc1ccccc1NC(=S)NNC(=O)c1ccc(O)cc1` to `COCCNC(=O)c1ccc(S(=O)(=O)c2ccc(Cl)cc2)c(NC(C)=O)c1`, the “hERG current change (%, negative = inhibition) at 10uM” value rises from 5.86% to 9.68%.

First: CC(C)(C)C(=O)Nc1sc2c(c1C#N)CCCCC2
Second: Cn1cc(Br)c(C(=O)Nc2sc3c(c2C(N)=O)CCCC3)n1
The “hERG current change (%, negative = inhibition) at 10uM” value of the first is lower: 2.28% for the first, 22.8% for the second.

Going from `C=CCNC(=S)Nc1cccc([N+](=O)[O-])c1` to `Cc1nc2cc(NC(=O)Nc3nccs3)ccc2n1C`, the “hERG current change (%, negative = inhibition) at 10uM” value falls from 2.65% to -6.22%.

Compared with `O=[N+]([O-])c1cnc(Sc2ccncn2)s1`, `COc1cc2c(cc1OC)C(c1ccncc1)CC(=O)N2` (stereo not shown) is lower in “hERG current change (%, negative = inhibition) at 10uM” value: 8.45% for the first, 5.44% for the second.

First: CCOC(=O)NC(=O)COC(=O)c1cccc2ccccc12
Second: COc1cccc(CNCCNC(=O)c2ccco2)c1OC.O=C(O)C(=O)O
The “hERG current change (%, negative = inhibition) at 10uM” value of the first is lower: -36.5% for the first, -6.05% for the second.

First: COc1ccc(C2C(=O)N(CCc3ccccc3)CC(=O)N2C2CCCC2)cc1 (stereo not shown)
Second: COc1ccc(N(CN2C(=O)C3C4C=CC(C4)C3C2=O)C(=O)c2ccco2)cc1 (stereo not shown)
The “hERG current change (%, negative = inhibition) at 10uM” value of the first is lower: -21.8% for the first, -4.13% for the second.

Compared with `COc1ccc(-c2noc(CCN3C(=O)c4ccccc4C3=O)n2)cc1OC`, `COc1ccc(-c2ccc(-c3nnc(Cc4ccc(OC)c(OC)c4)o3)cc2)cc1` is lower in “hERG current change (%, negative = inhibition) at 10uM” value: -4.91% for the first, -11% for the second.

Going from `CCN1C/C(=C/c2ccc(N3CCOCC3)cc2)C(=O)/C(=C/c2ccc(N3CCOCC3)cc2)C1` to `COC(=O)C1=C(c2ccc(F)cc2OCc2ccccc2)C[C@@H]2CC[C@H]1N2C(=O)N1CCOCC1`, the “hERG current change (%, negative = inhibition) at 10uM” value falls from 4.37% to -15.6%.

First: O=C(O)c1ccc2c(c1)NC(=O)C(N1CCCC1)S2 (stereo not shown)
Second: Cn1nnnc1SCC(=O)Nc1cccc(S(=O)(=O)N2CCCC2)c1
The “hERG current change (%, negative = inhibition) at 10uM” value of the first is lower: 12% for the first, 23.2% for the second.

Going from `Cc1cc2c([nH]c3ccccc32)c2c1OC(C)(C)C=C2` to `CCC1CCc2c([nH]c3ccccc3c2=O)O1` (stereo not shown), the “hERG current change (%, negative = inhibition) at 10uM” value falls from 5.61% to -2.41%.

Compared with `Cc1ccc(CS(=O)(=O)c2ncc(Cl)c(C(=O)Nc3nnc(C)s3)n2)cc1`, `Cc1ccc(S(=O)(=O)NNC(=O)c2ccccc2-n2cccc2)cc1` is lower in “hERG current change (%, negative = inhibition) at 10uM” value: 3.35% for the first, 0.548% for the second.

First: O=C1c2cccc(OCc3ccc(F)cc3)c2CCN1Cc1ccccc1
Second: COc1cc(CNc2ccc3[nH]c(=O)[nH]c3c2)ccc1OCc1ccc(F)cc1
The “hERG current change (%, negative = inhibition) at 10uM” value of the first is lower: 4.56% for the first, 13.3% for the second.

First: COc1cc(CN2CCN(c3cccc(Cl)c3)CC2)cc(OC)c1OC
Second: COc1cc2c(cc1OC)C1C(C(=O)Nc3ccccc3N3CCN(C)CC3)c3ccccc3C(=O)N1CC2 (stereo not shown)
The “hERG current change (%, negative = inhibition) at 10uM” value of the first is lower: -35.7% for the first, -26.8% for the second.

First: CCOC(=O)c1c(S(=O)(=O)NCC2CCN(CCc3cccs3)CC2)c(C)n(C)c1C
Second: Cc1ccc(Cl)cc1NC(=O)COC(=O)Cn1cnc2c1c(=O)n(C)c(=O)n2C
The “hERG current change (%, negative = inhibition) at 10uM” value of the first is lower: -49.5% for the first, 0.977% for the second.

First: Cc1cc(C)c(S(=O)(=O)Nc2ccc(C(=O)O)cc2)cc1S(=O)(=O)Nc1ccc(C(=O)O)cc1
Second: CCC(C(=O)N/N=C(\C)c1cccnc1)c1ccccc1 (stereo not shown)
The “hERG current change (%, negative = inhibition) at 10uM” value of the first is higher: 10.8% for the first, 10.4% for the second.

First: Cc1cc(C)n(-c2nnc(C)n2NS(C)(=O)=O)n1
Second: COC(=O)C1CCN(C(=O)Cn2nnc(-c3ccccc3)n2)CC1
The “hERG current change (%, negative = inhibition) at 10uM” value of the first is higher: 14.6% for the first, 14.4% for the second.

First: COCCCNC(=O)Cn1cc2c(n1)CCCCC2
Second: O=C(CN1C(=O)NC2NC(=O)NC21)N/N=C/c1ccc(F)cc1 (stereo not shown)
The “hERG current change (%, negative = inhibition) at 10uM” value of the first is lower: 16.8% for the first, 18.3% for the second.

Going from `CC(C)O/N=C1\C(=O)N(c2ccccc2)c2ccccc21` to `c1ccc(-c2csc(-c3ccc(-c4csnn4)cc3)n2)cc1`, the “hERG current change (%, negative = inhibition) at 10uM” value rises from -15.5% to 17.6%.

Going from `O=C(O)CCCn1c(=O)[nH]c2ccccc2c1=O` to `O=C1C=CC(=O)N1CCCCCCN1C(=O)C=CC1=O`, the “hERG current change (%, negative = inhibition) at 10uM” value falls from 4.41% to -21.5%.

First: Nc1cc(Cl)cc(C(=O)O)c1Cl
Second: Fc1ccc(-c2nnc(Cc3nnc(-c4ccc(F)cc4)o3)o2)cc1
The “hERG current change (%, negative = inhibition) at 10uM” value of the first is higher: 15.9% for the first, 10.8% for the second.
